# Reference: the supplement of paper PMC9135407
# Several values for one entry are separate records, joined by “and”; a condition that tells them apart may be missing. Identical values can stand only once. Counter-ions that a name gives are not always drawn. Screen size: about 5,800 compounds; about 620 (11%) showed activity.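 The calls were made as follows: active = score above a cut-off or among the top three wells of a plate; in these data no inactive exceeds 0.85.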 The list shows a part of the results, in another mix than the full data.
# Test system: primary human hepatic stellate cells (donor 1)
# Assay: scaled lipid accumulation score (0 = DMSO-like, 1 = nortriptyline-like); higher = stronger HSC inactivation (lipid re-accumulation), active = hit call of the paper
# Conditions: 48 h
# [1] = library stock concentration: 10 mM
# [2] = library stock concentration: 3.33 mM
# [3] = library stock concentration: 2 mM
# [4] = library stock concentration: 80 uM
# [5] = library stock concentration: 400 uM
# [6] = library stock concentration: 1 mM
# [7] = library stock concentration: 5.7 mM
structure (smiles),measurement,setting,value
NC(=O)c1cnccn1 [Pyrazinecarboxamide],scaled lipid accumulation score,[1],inactive: ≤ 0
NC(=O)c1cnccn1 [Pyrazinamide],scaled lipid accumulation score,,inactive: 0.028
same,scaled lipid accumulation score,[2],inactive: ≤ 0
same,scaled lipid accumulation score,[1],inactive: 0.036 and inactive: ≤ 0
same,scaled lipid accumulation score,library stock concentration: 16.2 mM,inactive: ≤ 0
NC(=O)c1cnccn1,scaled lipid accumulation score,[1],inactive: ≤ 0
C(=C/CCN(C)C)(/c1c2cccc1)\c3c(cccc3)C=C2.Cl [Cyclobenzaprine hydrochloride],scaled lipid accumulation score,[1],active: 0.991
Nc1nc(N)c(N=O)c(OCC2CCCCC2)n1,scaled lipid accumulation score,[2],inactive: ≤ -0.009
same,scaled lipid accumulation score,[1],inactive: 0.305 and inactive: ≤ 0
Cc1cc2ncc(-c3ccccc3)nc2cc1C,scaled lipid accumulation score,[2],inactive: ≤ 0
c1cn2cc(-c3ccc4cn[nH]c4c3)nc(Nc3ccc(N4CCOCC4)cc3)c2n1 [Entospletinib],scaled lipid accumulation score,[3],active: 1.2
same,scaled lipid accumulation score,[1],active: 1.21
O=C(CCNNC(=O)c1ccncc1)NCc1ccccc1,scaled lipid accumulation score,[1],inactive: ≤ 0
O=C(CCNNC(=O)c1ccncc1)NCc1ccccc1 [Nialamide],scaled lipid accumulation score,,inactive: ≤ 0
same,scaled lipid accumulation score,library stock concentration: 6.7 mM,inactive: ≤ -0.006 and inactive: ≤ 0
same,scaled lipid accumulation score,[1],inactive: 0.262
CCCn1c(=O)c2[nH]c(C3CCCC3)nc2n(CCC)c1=O,scaled lipid accumulation score,[1],inactive: 0.039
"CCCn1c(=O)c2[nH]c(C3CCCC3)nc2n(CCC)c1=O [8-Cyclopentyl-1,3-dipropylxanthine]",scaled lipid accumulation score,[1],inactive: 0.072
Cc1ccc(S(=O)(=O)/C=C/C#N)cc1,scaled lipid accumulation score,[1],active: 0.931
Nc1ccc(-c2ccc3ncc4ccc(=O)n(-c5cccc(C(F)(F)F)c5)c4c3c2)cn1 [Torin2],scaled lipid accumulation score,[4],inactive: ≤ 0
same,scaled lipid accumulation score,[5],inactive: ≤ 0
same,scaled lipid accumulation score,[3],inactive: ≤ 0
same,scaled lipid accumulation score,[1],inactive: 0.042
Nc1ccc(-c2ccc3ncc4ccc(=O)n(-c5cccc(C(F)(F)F)c5)c4c3c2)cn1 [Torin 2],scaled lipid accumulation score,[2],inactive: ≤ 0
same,scaled lipid accumulation score,[1],inactive: 0.002
Cc1nc2ccccn2c(=O)c1CCN1CCC(C(=O)c2ccc(F)cc2)CC1 [Pirenperone],scaled lipid accumulation score,,inactive: 0.206
same,scaled lipid accumulation score,library stock concentration: 5.1 mM,inactive: ≤ 0
same,scaled lipid accumulation score,[1],inactive: ≤ 0 and inactive: 0.072
Cc1nc2ccccn2c(=O)c1CCN1CCC(C(=O)c2ccc(F)cc2)CC1,scaled lipid accumulation score,[1],inactive: 0.203
Cl.O=C(CCCCCN1CCN(c2ccccc2-c2ccccc2)CC1)NC1CCCc2ccccc21 (stereo unspecified) [LP 12 hydrochloride hydrate],scaled lipid accumulation score,[1],active: 0.898
CSc1nc2cc(Cl)c(Oc3cccc(Cl)c3Cl)cc2[nH]1,scaled lipid accumulation score,[1],inactive: ≤ 0
CSc1nc2cc(Cl)c(Oc3cccc(Cl)c3Cl)cc2[nH]1 [Triclabendazole],scaled lipid accumulation score,[2],inactive: ≤ 0
same,scaled lipid accumulation score,[1],inactive: ≤ -0.001
N[C@@H](Cn1ccc(=O)n(Cc2ccccc2C(=O)O)c1=O)C(=O)O,scaled lipid accumulation score,[1],inactive: ≤ -0.001 and inactive: 0.039
CC[P](CC)(CC)=[Au][S][C@@H]1O[C@H](COC(C)=O)[C@@H](OC(C)=O)[C@H](OC(C)=O)[C@H]1OC(C)=O [Auranofin],scaled lipid accumulation score,library stock concentration: 2.9 mM,active: 0.86
"CCCCC[C@H](O)/C=C/[C@@H]1[C@@H](C/C=C\CCCCCC(=O)O)[C@@H](O)C[C@H]1O [1a,1b-dihomo Prostaglandin F2.alpha.]",scaled lipid accumulation score,[6],inactive: ≤ 0
CCCCC[C@H](O)/C=C/[C@H]1[C@H](O)CC(=O)[C@@H]1C/C=C\CCCC(=O)O [Prostaglandin E2],scaled lipid accumulation score,[6],inactive: ≤ 0
same,scaled lipid accumulation score,[1],inactive: ≤ -0.001
CCCCC[C@H](O)/C=C/[C@H]1[C@H](O)CC(=O)[C@@H]1C/C=C\CCCC(=O)O [Dinoprostone],scaled lipid accumulation score,[7],inactive: ≤ -0.006
CCCCC[C@H](O)/C=C/[C@H]1[C@H](O)CC(=O)[C@@H]1C/C=C\CCCC(=O)O [Prostaglandin  E2],scaled lipid accumulation score,[6],inactive: ≤ -0.021
CC1(C)S[C@@H]2[C@H](NC(=O)[C@H](N)c3ccccc3)C(=O)N2[C@H]1C(=O)O [Ampicillin Trihydrate],scaled lipid accumulation score,[2],inactive: ≤ 0
same,scaled lipid accumulation score,[1],inactive: ≤ -0.001
CC1(C)S[C@@H]2[C@H](NC(=O)[C@H](N)c3ccccc3)C(=O)N2[C@H]1C(=O)O [Ampicillin trihydrate],scaled lipid accumulation score,,inactive: 0.123
same,scaled lipid accumulation score,[7],inactive: 0.028
CC1(C)S[C@@H]2[C@H](NC(=O)[C@H](N)c3ccccc3)C(=O)N2[C@H]1C(=O)O [Ampicillin Sodium],scaled lipid accumulation score,[1],inactive: ≤ 0
CC1(C)S[C@@H]2[C@H](NC(=O)[C@H](N)c3ccccc3)C(=O)N2[C@H]1C(=O)O [Ampicillin sodium],scaled lipid accumulation score,[2],inactive: ≤ 0
same,scaled lipid accumulation score,library stock concentration: 5.4 mM,inactive: ≤ -0.001
same,scaled lipid accumulation score,[1],inactive: ≤ -0.001 and inactive: ≤ 0
CN(C)C(=O)n1nnnc1Cc1ccc(-c2ccccc2)cc1,scaled lipid accumulation score,[1],inactive: 0.554
CCOc1cc(C(=O)Nc2ccc(Cl)c(-c3nc4ccccc4[nH]3)c2)cc(OCC)c1OCC,scaled lipid accumulation score,[1],inactive: 0.438
"O=C(/C=C/c1ccccc1)c1ccc(O[C@@H]2O[C@H](CO)[C@@H](O)[C@H](O)[C@H]2O)cc1O [2',4'-dihydroxychalcone 4'-glucoside]",scaled lipid accumulation score,[1],inactive: 0.22
COc1ccc(-c2ccc3ncc4c(c3c2)n(-c2ccc(N3CCNCC3)c(C(F)(F)F)c2)c(=O)n4C)cn1.O=C(O)/C=C\C(=O)O,scaled lipid accumulation score,[5],active: 0.909
C=C[C@H]1CN2CC[C@H]1C[C@H]2[C@H](O)c1ccnc2ccc(OC)cc12 [Quinine sulfate],scaled lipid accumulation score,library stock concentration: 4.7 mM,inactive: 0.308
same,scaled lipid accumulation score,[1],inactive: ≤ 0 and inactive: 0.364
C=C[C@H]1CN2CC[C@H]1C[C@H]2[C@H](O)c1ccnc2ccc(OC)cc12 [Quinine],scaled lipid accumulation score,library stock concentration: 6.2 mM,inactive: 0.205
C=C[C@H]1CN2CC[C@H]1C[C@H]2[C@H](O)c1ccnc2ccc(OC)cc12 [Quinine HCl Dihydrate],scaled lipid accumulation score,[2],inactive: 0.077
same,scaled lipid accumulation score,[1],inactive: 0.31
Cl.N#Cc1ccc2[nH]cc(CCCCN3CCN(c4ccc5oc(C(N)=O)cc5c4)CC3)c2c1 [Vilazodone HCl],scaled lipid accumulation score,[1],active: 1.1
O=C(O)c1cc(=O)[nH]c(=O)[nH]1 [Orotic acid (6-Carboxyuracil)],scaled lipid accumulation score,[2],inactive: ≤ 0
same,scaled lipid accumulation score,[1],inactive: ≤ 0
O=C(O)c1cc(=O)[nH]c(=O)[nH]1,scaled lipid accumulation score,[1],inactive: ≤ 0
O=c1n(CCCN2CCN(c3cccc(Cl)c3)CC2)nc2ccccn12 [Trazodone hydrochloride],scaled lipid accumulation score,,inactive: 0.051
same,scaled lipid accumulation score,library stock concentration: 4.9 mM,inactive: ≤ 0
same,scaled lipid accumulation score,[1],inactive: 0.251 and inactive: 0.131
O=c1n(CCCN2CCN(c3cccc(Cl)c3)CC2)nc2ccccn12,scaled lipid accumulation score,[1],inactive: ≤ 0
Cc1ccccc1C(C(=O)NC1CCCCC1)N(C(=O)Cn1ccnc1C)c1cccc(F)c1 (stereo unspecified),scaled lipid accumulation score,[2],inactive: ≤ -0.009
same,scaled lipid accumulation score,[1],inactive: ≤ 0
Oc1ccc(-c2nc(-c3ccc(F)cc3)c(-c3ccncc3)[nH]2)cc1,scaled lipid accumulation score,[4],inactive: ≤ -0.001
same,scaled lipid accumulation score,[5],inactive: ≤ -0.001 and inactive: 0.106
same,scaled lipid accumulation score,[3],inactive: 0.003 and inactive: 0.132
same,scaled lipid accumulation score,[2],inactive: ≤ 0
same,scaled lipid accumulation score,library stock concentration: 15.1 mM,inactive: 0.239
O=C(Nc1ccc(S(=O)(=O)Nc2ccccc2Cl)c(Cl)c1)c1ccccn1,scaled lipid accumulation score,[2],inactive: ≤ -0.009
same,scaled lipid accumulation score,[1],inactive: 0.077
CCC(NC(C)C)C(O)c1ccc(O)c2[nH]c(=O)ccc12 (stereo unspecified) [Procaterol hcl],scaled lipid accumulation score,library stock concentration: 6.9 mM,inactive: ≤ -0.006
CCC(NC(C)C)C(O)c1ccc(O)c2[nH]c(=O)ccc12 (stereo unspecified) [Procaterol hydrochloride],scaled lipid accumulation score,library stock concentration: 6.1 mM,inactive: ≤ 0
same,scaled lipid accumulation score,[1],inactive: ≤ -0.006
O=C(O)c1ccc2cc(-c3ccc(O)c(C45CC6CC(CC(C6)C4)C5)c3)ccc2c1,scaled lipid accumulation score,[1],inactive: ≤ -0.006
O=C1C(SCCO)=C(SCCO)C(=O)c2ccccc21,scaled lipid accumulation score,library stock concentration: 16.1 mM,active: 1.05
CC(C)C[C@H](NC(=O)N1CCCCCC1)C(=O)N[C@H](Cc1cn(C)c2ccccc12)C(=O)N[C@H](Cc1ccccn1)C(=O)O,scaled lipid accumulation score,[1],inactive: ≤ -0.006
OCCn1cc(-c2cnc3nnn(Cc4ccc5ncccc5c4)c3n2)cn1,scaled lipid accumulation score,[4],inactive: 0.035
same,scaled lipid accumulation score,[5],inactive: ≤ -0.005
same,scaled lipid accumulation score,[3],inactive: ≤ -0.009 and inactive: ≤ -0.005
same,scaled lipid accumulation score,[2],inactive: ≤ 0
same,scaled lipid accumulation score,[1],inactive: ≤ 0 and inactive: ≤ -0.009 and inactive: ≤ -0.005
CC1=C(/C=C/C(C)=C/C=C/C(C)=C/CO)C(C)(C)CCC1 [Retinol],scaled lipid accumulation score,library stock concentration: 7 mM,inactive: ≤ 0
same,scaled lipid accumulation score,[1],inactive: ≤ 0
Nc1nc2[nH]c(=O)[nH]c2c(=O)[nH]1 [8-hydroxy Guanine (hydrochloride)],scaled lipid accumulation score,[6],inactive: ≤ 0
CCOc1cc2ncc(C#N)c(Nc3ccc(F)c(Cl)c3)c2cc1NC(=O)C=CCN(C)C [Pelitinib (EKB-569)],scaled lipid accumulation score,[2],active: 1.01
C/C=C(/C(=C/C)c1ccc(O)cc1)c1ccc(O)cc1 [Dienestrol],scaled lipid accumulation score,,inactive: ≤ 0
same,scaled lipid accumulation score,library stock concentration: 7.5 mM,inactive: 0.181
same,scaled lipid accumulation score,[1],inactive: ≤ 0
Cc1ncc([N+](=O)[O-])n1CC(C)O (stereo unspecified) [1-(2-Methyl-5-nitro-imidazol-1-yl)-propan-2-ol],scaled lipid accumulation score,[1],inactive: ≤ 0
Cc1ncc([N+](=O)[O-])n1CC(C)O (stereo unspecified) [Secnidazole],scaled lipid accumulation score,[2],inactive: 0.012
same,scaled lipid accumulation score,[1],inactive: ≤ 0 and inactive: ≤ -0.027
O=C(O)c1ccccc1OP(=O)(O)O [Fosfosal],scaled lipid accumulation score,,inactive: ≤ 0
same,scaled lipid accumulation score,[1],inactive: ≤ 0
CC(C)CN1CCC(CNCc2ccc(C#CC(C)(C)O)s2)CC1,scaled lipid accumulation score,[1],active: 0.671
COc1ccc2cc([C@H](C)C(=O)O)ccc2c1 [Naproxen],scaled lipid accumulation score,,inactive: ≤ 0
same,scaled lipid accumulation score,[2],inactive: ≤ 0
same,scaled lipid accumulation score,library stock concentration: 8.7 mM,inactive: ≤ -0.006
same,scaled lipid accumulation score,[1],inactive: ≤ 0
COc1ccc2cc([C@H](C)C(=O)O)ccc2c1 [(S)-Naproxen],scaled lipid accumulation score,[6],inactive: ≤ 0
COc1ccc2cc([C@H](C)C(=O)O)ccc2c1,scaled lipid accumulation score,[1],inactive: ≤ 0
COc1ccc2cc([C@H](C)C(=O)O)ccc2c1 [(-)-Naproxen sodium],scaled lipid accumulation score,[1],inactive: ≤ -0.055
COc1ccc2cc([C@H](C)C(=O)O)ccc2c1 [Naproxen sodium],scaled lipid accumulation score,[1],inactive: ≤ -0.001
